Assay results reported in ChEMBL document CHEMBL1201862, “PubChem BioAssay data set” (2004).

tested on: NCI-H322M; experiment: growth of human tumour cells (NCI), 48 h

| SMILES | GI50 |
| --- | --- |
| CC12CCC3c4ccc(O)cc4CCC3C1C/C(=N\O)C2O (centres undefined) | inactive: > 100 µM |
| N#C/C(=C\NC(=S)c1ccncc1)c1nc2ccccc2s1 | inactive: > 100 µM |
| CCCCn1cnc2c(c(CC#N)nn2-c2ccccc2)c1=N | inactive: > 100 µM |
| Nc1nc(N)c2cc(Sc3ccc4ccccc4c3)ccc2n1 | inactive: 1.6 µM |
| CC1CC2=Nc3ccccc3NC(c3ccccc3)C2=C(O)O1 (centres undefined) | inactive: > 100 µM |
| CC(C)(Oc1ccc(-c2cccc3ccccc23)cc1)C(=O)O | inactive: > 100 µM |
| [O-]c1c[n+](-c2ccccc2)no1 | inactive: > 100 µM |
| O=C(CC(O)c1cccnc1)CC(O)c1cccnc1 (centres undefined) | inactive: 17.2 µM |
| COc1cc2c(c(OC)c1OC)-c1ccc(SC)c(=O)cc1[C@@H](O)CC2 | active: 0.000635 µM |
| c1cc2c(cc1NC1=NCCO1)CCCC2 | inactive: 4.25 µM |
| O=C(N/N=C\c1ccccc1)Nc1cccc2ccccc12 | inactive: 57.9 µM |
| O=C1/C(=C/c2ccccc2[N+](=O)[O-])N=C(c2ccccc2)N1C1Nc2cc3c(cc2S1)NC(N1C(=O)/C(=C/c2ccccc2[N+](=O)[O-])N=C1c1ccccc1)S3 (centres undefined) | inactive: 53.3 µM |
| N#Cc1nc(-c2cccs2)oc1N | inactive: > 100 µM |
| CCC1CCc2c(c(=O)oc3c2cc(OC)c2cccc(OC)c23)C1 (centres undefined) | inactive: > 100 µM |
| CC1NC(=O)c2c(-c3ccccc3)nn(-c3ccccc3)c2NC1=O (centres undefined) | inactive: > 100 µM |
| CC1=CC(C)(C)N=C2SC(c3ccc(N)cc3)=NN12 | inactive: > 100 µM |
| N#Cc1cnc(N)nc1NCC1(CO)CC(CCc2ccccc2)C1 (centres undefined) | inactive: > 100 µM |
| Cc1ccc(Sc2cc([N+](=O)[O-])cc(Sc3ccc(C)cc3)c2Sc2ccc(C)cc2)cc1 | inactive: > 100 µM |
| CC(=O)Oc1ccc(C2SCc3nc4ccccc4n32)cc1 (centres undefined) | inactive: > 100 µM |
| Cc1ccc(NCC(=O)N2CC(=O)Nc3ccccc32)cc1 | inactive: > 100 µM |
| CC(=O)Nn1cnc(C(=N)C#N)c1N | inactive: > 100 µM |
| COC12CCCN1c1ccn(Cc3ccccc3)c(=O)c1C2=O (centres undefined) | inactive: > 100 µM |
| CC12CC(=O)C3C(C(=O)C1)C32C (centres undefined) | inactive: > 100 µM |

| SMILES | GI50 |
| --- | --- |
| Oc1cccc(-c2ccc3c4c2O[C@H]2c5[nH]c6ccccc6c5C[C@@]5(O)[C@@H](C3)N(CC3CC3)CC[C@]425)c1 | inactive: 3.05 µM |
| CC(=O)OCC1OC(n2c(C)c(C(C)=O)c(-c3ccco3)c(C#N)c2=S)C(OC(C)=O)C(OC(C)=O)C1OC(C)=O (centres undefined) | inactive: > 100 µM |
| CS(=O)(=O)OCC1CCCCCCCCCCC12SCCCS2 (centres undefined) | inactive: > 100 µM |
| NCCCN(CCCN(C(=O)Nc1ccccc1)c1ccccc1)C(=O)Nc1ccccc1 | inactive: 31.1 µM |
| c1cc(-c2ccc(-c3ccc(-c4ccc(-c5cccc6nsnc56)[nH]4)c4nsnc34)[nH]2)c2nsnc2c1 | inactive: > 100 µM |
| O=C1CSC(/C=C/c2ccccc2)N1c1ccc(-n2c(-c3ccccc3)nc3ccccc3c2=O)cc1 (centres undefined) | inactive: 9.29 µM |
| COc1c(OC(C)=O)cc2c(OC(C)=O)c1CC(C)CC(OC)C(O)C(C)/C=C(\C)C(OC(N)=O)C(OC)/C=C\C=C(/C)C(=O)N2 (centres undefined) | inactive: > 100 µM |
| COc1ccc(N2C(=O)CSC2c2c[nH]c3ccccc23)cc1 (centres undefined) | inactive: 87.5 µM |
| O=c1c2ccccc2nc2n1NC(c1c(Cl)cccc1Cl)N2c1cccc(Cl)c1 (centres undefined) | inactive: 4.39 µM |
| CC1(C)N=C(/C(C#N)=[N+](/[O-])C(=O)c2ccccc2)C(C)(C)N1O | inactive: > 100 µM |
| NC(=O)C12CCC1C1CCCCC12N1CCOCC1 (centres undefined) | inactive: > 100 µM |
| O=[N+]([O-])/C(C(Cl)=C(Cl)Cl)=C(/Br)SCc1ccccc1 | inactive: 17.7 µM |
| CC1=NN(C(=O)Cc2ccccc2)C(=O)/C1=C\c1ccccc1O | inactive: > 100 µM |
| CN(C)S(=O)(=O)Nc1nnc(S(N)(=O)=O)s1 | inactive: > 100 µM |
| COc1ccc(N2C(=O)C3c4[nH]c5ccccc5c4C4c5ccccc5CC4C3C2=O)cc1 (centres undefined) | inactive: > 100 µM |
| CCOC(=O)C1(C#N)C(c2ccccc2)CC(O)(c2ccc([N+](=O)[O-])cc2)C(C(=O)c2ccc([N+](=O)[O-])cc2)C1c1ccccc1 (centres undefined) | inactive: > 100 µM |
| COC(=O)C1(C)CCC(c2ccc(C)cc2)=C(CC(=O)O)C1 (centres undefined) | inactive: > 100 µM |
| COc1c(OC(C)=O)ccc(/C=C2\N=C(C)OC2=O)c1[N+](=O)[O-] | inactive: > 100 µM |
| O=C(NCCO)c1cc2c(cn1)[nH]c1ccccc12 | inactive: > 100 µM |
| C[C@]12CC[C@H]3[C@@H](CCC4=CC(=O)CC[C@@]43C)[C@@H]1CC[C@@H]2OC(=O)c1cccc2c(=O)c3ccccc3[nH]c12 | inactive: 19.1 µM |
| COc1ccc(S(=O)(=O)n2c3c(c4ccccc42)[C@@H]2[C@@H](CCCN2C(=O)C[S+]([O-])c2ccc(C)cc2)[C@H](Cl)C3)cc1 (some centres undefined) | inactive: > 100 µM |
| CC(C)C1CC(CO)(CNc2nc(N)nc(Cl)c2/C=N\O)C1 (centres undefined) | inactive: 3.36 µM |
| CC(=O)C(C(C)=O)[C@@H]1OC(C)(C)O[C@@H]1[C@H]1COC(C)(C)O1 | inactive: 35.4 µM |

| SMILES | GI50 |
| --- | --- |
| COC(=O)CCC(=O)Nc1cc(Cl)ccc1Cl | inactive: > 100 µM |
| Cc1ccc(-c2nnc(SCC(=O)O)[nH]2)cc1 | inactive: > 100 µM |
| Cc1c(N2C(=O)C(Cl)C2/C=C/c2ccccc2)c(=O)n(-c2ccccc2)n1C (centres undefined) | inactive: 14.9 µM |
| CN1C[C@@H]2CCCN2P1Oc1cccc2cccnc12 (some centres undefined) | inactive: > 100 µM |
| CCCNC1=C2C[C@@H](C)C[C@@H](OC)[C@@H](OC(=O)CCCN)[C@H](C)/C=C(\C)[C@@H](OC(N)=O)[C@H](OC)/C=C\C=C(/C)C(=O)NC(=CC1=O)C2=O | inactive: 16.6 µM |
| O=C(O)/C(=C/c1c(O)ccc2ccccc12)c1csc(-c2nc(/C(=C\c3c(O)ccc4ccccc34)C(=O)O)cs2)n1 | inactive: 14.4 µM |
| CN(C)CCCn1c2ccccc2c2cnccc21 | inactive: 39 µM |
| COc1cc2c[n+](C)c3c4cc(OC)c(OC(C)C)cc4ccc3c2cc1OC | inactive: > 100 µM |
| CC(N)C(C)Cc1ccccc1 (centres undefined) | inactive: > 100 µM |
| CC(C)(C)/C(O)=C\c1nc2ccc(C(F)(F)F)cc2[nH]c1=O | inactive: > 100 µM |
| CCCCCCCCCCCCCC(=O)OC1CC(=O)OC1CO (centres undefined) | inactive: > 100 µM |
| COc1ccc2nc3c(C(=O)NCCN(C)C)cccc3cc2c1 | inactive: 2.07 µM |
| CSC(=S)OC1CC(n2cnc3c(NC(=O)c4ccccc4)ncnc32)OC1CO[Si](C)(C)C(C)(C)C (centres undefined) | inactive: 50.5 µM |
| Cc1ccc2nc3cc(C)c(=O)cc-3sc2c1 | inactive: > 100 µM |
| COc1ccc(/C=C2\CCC(C)/C(=C\c3ccc(OC)c(OC)c3)C2=O)cc1OC (centres undefined) | inactive: 12.3 µM |
| COc1ccc(N2C(=O)CC(=O)N(C(=O)CCCCCCCCC(=O)N3C(=O)CC(=O)N(c4ccc(OC)cc4)C3=S)C2=S)cc1 | inactive: > 100 µM |
| CC1=C(C(=O)NCCc2ccccc2)CC(C(=O)NCCc2ccccc2)=C(C)N1 | inactive: > 100 µM |
| COc1ccc(C(=O)C(C(=O)C(=O)NC2C3CC4CC(C3)CC2C4)c2ccc(OC)cc2)cc1 (centres undefined) | inactive: > 100 µM |
| O=C1/C(=C\c2cccc(Oc3ccccc3)c2)S(=O)(=O)C(c2ccccc2)N1c1cc(Cl)ccc1Cl (centres undefined) | inactive: 30.1 µM |
| O=Cc1cc2c(s1)C(=O)c1sccc1C2=O | inactive: 1.63 µM |
| CCOc1ccc2nc(NC(=O)C(=O)C(C(=O)c3ccccc3F)C3OC(=O)c4ccccc43)sc2c1 (centres undefined) | inactive: 27.2 µM |
| CC(C)CC(N)C(=O)Nc1ccc2ccccc2c1 (centres undefined) | inactive: > 100 µM |
| COC(=O)C(CCC1CC(OC)N(C(=O)OCc2ccccc2)C1)/N=C/c1ccccc1 (centres undefined) | inactive: > 100 µM |

| SMILES | GI50 |
| --- | --- |
| Clc1ccc(-c2nnc3sc4nc5ccccc5c-4nn23)c(Cl)c1 | inactive: 97.5 µM |
| Cc1cc(NCCCCCCNc2cc(C)nc3cc(N(C)C)ccc23)c2ccc(N(C)C)cc2n1 | inactive: 61.2 µM |
| CC1=C(/C=C/C(C)=C/C=C/C(C)=C/C(=O)OC2CC(n3cc(F)c(=O)[nH]c3=O)OC2CO)C(C)(C)CCC1 (centres undefined) | inactive: 2.63 µM |
| COC(=O)c1ccccc1/C=C1\Cc2c(ccc3c2CCC3)C1=O | inactive: > 100 µM |
| COC(=O)C1CC2CCC1(O[Si](C(C)C)(C(C)C)C(C)C)C(O)C2 (centres undefined) | inactive: 24 µM |
| CC1c2c(Cl)nc3ccccc3c2Oc2c1c(Cl)nc1ccccc21 | inactive: > 100 µM |
| Cc1nn2c(C(=O)N/N=C/c3ccc([N+](=O)[O-])cc3)c(C)nc2s1 | inactive: > 100 µM |
| COc1ccc(CC(=O)NCCc2ccc(OC)c(OC)c2)cc1Br | inactive: > 100 µM |
| Nc1ncnc2c1nnn2C1C=CC(CP(=O)(O)O)C1 (centres undefined) | inactive: > 100 µM |
| CCOc1cc(NC(C)=O)ccc1C(=O)N/N=C/c1ccco1 | inactive: > 100 µM |
| CC1C(=O)OCC2=CCN3CCC(OC(=O)C(C)C1(C)O)C23 (centres undefined) | inactive: > 100 µM |
| CCN1CCC(O)(c2ccc(O)cc2)C(C(=O)c2ccc(O)cc2)C1 (centres undefined) | inactive: > 100 µM |
| OCCOCCN1CCN(CCCN2c3ccccc3Sc3ccc(C(F)(F)F)cc32)CC1 | inactive: 13.1 µM |
| COc1cc([N+](=O)[O-])c(S(=O)(=O)O)cc1-n1nc(C(=O)Nc2ccccc2)n[n+]1-c1cc(S(=O)(=O)[O-])c([N+](=O)[O-])cc1OC | inactive: > 100 µM |
| CC1=C2N3C[C@@H](n4c(=O)n(C)c(=O)n43)C23CCC1n1c(=O)n(C)c(=O)n13 | inactive: > 100 µM |
| CC(=O)O[C@H]1C(=O)[C@@]2(C)[C@H]([C@H](OC(=O)c3ccccc3)[C@]3(O)C[C@H](OC(=O)[C@H](O)[C@@H](NC(=O)c4ccco4)c4ccccc4)C(C)=C1C3(C)C)[C@]1(OC(C)=O)CO[C@@H]1C[C@@H]2O | active: < 0.00125 µM |
| NC(N)=NN/C(=C1/N=c2ccc([N+](=O)[O-])cc2=NC1=O)C(O)c1ccco1 (centres undefined) | inactive: > 100 µM |
| CCCCCC[N+](C)(C)Cc1ccc(C[N+](C)(C)CCCCCC)cc1 | inactive: 3.64 µM |
| O=C(CCN1CCCCC1)Nc1ccc2sc3ccccc3c(=O)c2n1 | inactive: 17.5 µM |
| COc1ccc(/C=C2\CCC(CCN(C)C)(C3=CCCC3)C2=O)cc1 (centres undefined) | inactive: 17.7 µM |

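Grown in 96-well plates, cells were treated for 48 hours with each compound at five concentrations. Insufficient inhibition: endpoint recorded as highest concentration tested. Abbreviation: GI50, concentration required for 50% inhibition of growth.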 Calls of active or inactive are those of the source. Rule as the data show it: active = GI50 up to about 1.1 µM and inactive = higher.
